Some of the results follow. At the low end of the ranking the order means little.

The experiment addresses SIX1-Q177R homeodomain (UniProt Q15475). The experiment in a line: universal protein binding microarray. As to conditions: Universal all-10-mer PBM (8x60K, AMADID 030236), 300 nM GST-tagged protein, Alexa Fluor 488 anti-GST; buffer, salt, pH and temperature not stated; high values mean tight binding; most listed sequences are background and not binding sites; double strand, one strand shown.
With CATGCGTA, the binding signal was -0.0502 E-score. For the sequence AGACATCA, the binding signal is -0.0731 E-score.

ATACGGAA: the binding signal is -0.104 E-score. To CTGGTCCA belongs -0.0407 E-score. On to AGCGGGTA, for which the binding signal was determined as 0.158 E-score. For ATAGCGAA, the binding signal was -0.16 E-score.

In the case of CATAGTCA, the binding signal is -0.197 E-score. Consider GATCCCGC, for which the binding signal is 0.185 E-score.

As to AATAATAA, the binding signal is 0.00188 E-score.

As to AGAGACCT, the binding signal is -0.3 E-score. Take GAAAAACA: the binding signal was 0.108 E-score.

In the case of ACTTCGTA, the binding signal was -0.193 E-score.

AGGGGTAC: the binding signal amounted to 0.273 E-score.

On to GGCGTGAC, for which the binding signal came out at 0.0401 E-score. For the sequence AGTGTTTG, the binding signal is 0.336 E-score. As for CTCGAGAC, the binding signal turned out to be 0.0473 E-score. CCATACGA: the binding signal is -0.0127 E-score. On to GTAATCGA, for which the binding signal came out at 0.204 E-score. To TCGTACGA belongs -0.0591 E-score; to GACTTTCA, -0.204 E-score; to CAATCCCG, 0.0598 E-score.

Regarding CAATACGA, the binding signal was determined as 0.0173 E-score. To GGTCCTGA belongs -0.128 E-score; to CGTACGAC, 0.0567 E-score; to CCGGTCCG, -0.114 E-score.

Consider ACCTATTC, for which the binding signal was -0.152 E-score. To CGGTCACG belongs -0.234 E-score; to ACCGGAGT, 0.25 E-score.

On to TACCCCCA, for which the binding signal came out at 0.304 E-score.

For the sequence AGTCCTTG, the binding signal was -0.279 E-score.

CTGTACTA: the binding signal is -0.185 E-score. As to TAGTCTAA, the binding signal was -0.241 E-score.

As to ACCGGTCG, the binding signal was -0.0599 E-score. Turning to GGATGTGA, the binding signal was -0.154 E-score. For the sequence CGTACAGA, the binding signal is -0.0605 E-score.

Regarding ACCTGCTC, the binding signal is 0.0304 E-score. Turning to GCAGCGCC, the binding signal was -0.174 E-score. With TTCAAGAA the figure was -0.0127 E-score. Regarding AAAAGGCC, the binding signal was -0.0372 E-score. As for CGATGTCA, the binding signal was -0.233 E-score. With GCAGTGCA, the binding signal is -0.0186 E-score. Turning to ACTGTGTA, the binding signal is 0.139 E-score. Take CGGCGTTC: the binding signal is -0.0306 E-score. To CTGTGCAC belongs 0.216 E-score. Take ACCTCGTC: the binding signal is -0.0193 E-score. Turning to AACCGAAG, the binding signal was -0.112 E-score. For CGACCCTC, the binding signal was 0.0648 E-score.

Turning to AAATATTG, the binding signal was -0.229 E-score. For the sequence GTCAGTAA, the binding signal is 0.111 E-score.

Turning to ACACCGAG, the binding signal came out at 0.478 E-score. As for GCACGCAA, the binding signal turned out to be 0.0455 E-score.

In the case of CGCCATAA, the binding signal is -0.144 E-score. With CGGAAGGA the figure was -0.0458 E-score.

AAGGAGCC: the binding signal is -0.0656 E-score. Consider GATCACGA, for which the binding signal is -0.001 E-score.

Consider GCATGATA, for which the binding signal was -0.027 E-score. Regarding AGGAAAAA, the binding signal is -0.217 E-score.

As for GAATGCGC, the binding signal is 0.0683 E-score. Consider TGTTATAA, for which the binding signal worked out at 0.267 E-score. For the sequence GGCGCACC, the binding signal amounted to 0.149 E-score.

As to AAAGACAC, the binding signal was 0.425 E-score. Consider CCCTGCCG, for which the binding signal turned out to be 0.0946 E-score. As for CCAAATGC, the binding signal is -0.0339 E-score. On to ATGCGAAC, for which the binding signal was determined as 0.0387 E-score. For the sequence AAGCATAT, the binding signal is -0.288 E-score.

In the case of ACCCGTTG, the binding signal stood at 0.151 E-score. Consider CAATCCGG, for which the binding signal was found to be 0.0613 E-score.

Take CTCCTGGC: the binding signal was -0.0387 E-score. Consider AATAGCGC, for which the binding signal was -0.0487 E-score. For AGCCCCCC, the binding signal turned out to be 0.112 E-score. For ACGTCGGC, the binding signal is -0.253 E-score. As to CTAGGATC, the binding signal came to 0.0719 E-score.

GCGCGACC: the binding signal amounted to 0.0404 E-score. Turning to GTCCATGA, the binding signal turned out to be 0.0465 E-score.

ATTTGCTC: the binding signal is -0.237 E-score.

ATGGGGAC: the binding signal was -0.0165 E-score. With ATAGCCAG the figure was -0.204 E-score; with ACCCACTA, 0.105 E-score. With GAGATTAA, the binding signal is -0.27 E-score. To CGAAACAG belongs -0.193 E-score; to GCGACTCC, 0.262 E-score. Turning to ACAATTGG, the binding signal is -0.085 E-score. On to CTACCAGA, for which the binding signal is -0.0607 E-score. With CACCACCG the figure was 0.355 E-score; with CAGAAGTC, -0.134 E-score; with CGACAGCA, -0.204 E-score. To CTGTGGTC belongs -0.0737 E-score. With AGCTGACG the figure was -0.21 E-score. Consider ACGACTAC, for which the binding signal stood at 0.0149 E-score. For the sequence GTTGTGGA, the binding signal is -0.0646 E-score. With AGTCGAGC, the binding signal is -0.267 E-score.

For AATAGAAA, the binding signal was -0.00737 E-score. For the sequence AACACCGA, the binding signal was found to be 0.469 E-score. As for AACACGAC, the binding signal came to 0.373 E-score.

As for CATTGAAC, the binding signal is -0.0506 E-score. Take ACAGGAGG: the binding signal is -0.0345 E-score. For CGAACCGA, the binding signal is 0.0564 E-score. Turning to TATCCCCA, the binding signal is 0.114 E-score. For GCTCAGTA, the binding signal was determined as 0.0624 E-score. Turning to TAAACCTA, the binding signal came to 0.00984 E-score.

As to GATCTCTA, the binding signal was -0.222 E-score. To CGGGACGA belongs -0.0572 E-score; to CGGCCTTA, -0.198 E-score; to GGATAATA, 0.111 E-score. For the sequence GCACTAGC, the binding signal is 0.125 E-score. On to AAAGCTAG, for which the binding signal is -0.21 E-score. As to ATCATGGC, the binding signal is -0.0689 E-score. In the case of CAAGAGAC, the binding signal was -0.0111 E-score. CCCCCTAG: the binding signal was determined as 0.0681 E-score.

Take AACGCAAA: the binding signal is -0.154 E-score.

With GCCAATAA, the binding signal was -0.113 E-score. Turning to GAGGAATC, the binding signal was -0.0718 E-score. With GCGGCTCA the figure was -0.0736 E-score. As for ATGGAAAG, the binding signal was -0.227 E-score.

As to GCGTCTCC, the binding signal amounted to 0.0439 E-score. To CACTCAGC belongs 0.114 E-score; to AGTATTCG, -0.202 E-score.

Take TCGTTACA: the binding signal was found to be 0.278 E-score. TAATGAGA: the binding signal was -0.195 E-score. Take CCGAACGA: the binding signal came out at 0.133 E-score. Regarding GAGCCGCC, the binding signal is -0.0985 E-score. As for ACTGAGCT, the binding signal was -0.0707 E-score.

With ACGCGTTG, the binding signal is -0.00609 E-score.

Consider GGATGCGA, for which the binding signal is -0.165 E-score.

For ACGCATTC, the binding signal is -0.155 E-score. Regarding AGTGTCTC, the binding signal turned out to be 0.329 E-score. Take CGCCAGAA: the binding signal was 0.0208 E-score. ACCGATCG: the binding signal was -0.0746 E-score. As to GCACGCAC, the binding signal was 0.123 E-score.

Turning to AATTTGGA, the binding signal was -0.0664 E-score. To CAGGATTA belongs 0.0279 E-score; to CGTACCAA, 0.00849 E-score. With ACTAAAGT the figure was -0.0957 E-score; with CTTAGGCC, 0.0518 E-score. Regarding CACATAGA, the binding signal is -0.0656 E-score. Regarding AGTGGTCC, the binding signal is -0.215 E-score.

Regarding AAGGCTGA, the binding signal was -0.19 E-score. Regarding CTCATCGC, the binding signal was -0.0999 E-score.

Regarding ATGGGACC, the binding signal was -0.0715 E-score. For the sequence AAACTAGT, the binding signal is -0.158 E-score. To ATTTACAC belongs 0.451 E-score; to ACAGATAG, -0.152 E-score. Consider GAAATCGA, for which the binding signal was -0.201 E-score. In the case of AGAAGCCG, the binding signal was -0.175 E-score. With GACTTTAC the figure was 0.047 E-score.

On to ACGTCGTC, for which the binding signal was -0.228 E-score. With AAATCACG the figure was -0.121 E-score; with CCCGACAA, 0.0176 E-score; with AAATGCAG, -0.162 E-score. Consider CGACCACA, for which the binding signal is 0.0686 E-score. With AACCATAC, the binding signal came to 0.0445 E-score. With CGGGCCCA the figure was -0.22 E-score. With ATGATTAC, the binding signal is -0.136 E-score. To GGAACGAA belongs -0.0782 E-score; to AACATTGA, -0.163 E-score; to ATACCGGC, 0.0811 E-score. AAGAGTAT: the binding signal is -0.00511 E-score. ATTGGTTC: the binding signal was -0.148 E-score.

Take ATTTTGGA: the binding signal was -0.142 E-score. Regarding AGAAGTAC, the binding signal worked out at 0.0714 E-score. Regarding AATAGATT, the binding signal is -0.141 E-score.

As for ACGATGGC, the binding signal was -0.111 E-score. As to CCAAAACC, the binding signal was determined as 0.00258 E-score. For TCATAAGA, the binding signal was -0.0328 E-score. With ACACTACA the figure was 0.41 E-score. To CACACCTA belongs 0.333 E-score; to AGCTGCTC, -0.0419 E-score. As to CGATTATA, the binding signal is -0.0193 E-score. AACCACGG: the binding signal was -0.0772 E-score.

Turning to AGTGGTTC, the binding signal is -0.0702 E-score.

As for GTACGGAA, the binding signal is -0.0201 E-score. With ACGCCAAG the figure was 0.0803 E-score.

(Values after PMC10668032.)
